# Assay results published in publication PMC5892938.
# The list shows a part of the results. At the low end of the ranking the order means little.
# Biological target: GST-SBP-SLBP (stem-loop binding protein) (UniProt Q14493)
# Assay: targeted RNA Bind-n-Seq;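 note: DESeq read counts versus GST-SBP nonspecific binding control pulldown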
# Conditions: RBNS binding buffer: 25 mM Tris pH 7.5, 150 mM KCl, 3 mM MgCl2, 0.1% Tween, 0.5 mg/mL BSA, 1 mM DTT; 27 nM protein, 750 pM RNA pool; temperature not stated; high values mean tight binding
row,Sequence,binding signal (log2 fold change)
1,GGUCACGUCUCAAUCAACUCAUUUCCAGGAGUUUACUCCUGCAUAUUCAACAGCUCGCAGUCAAG,-0.0303
2,GGUCACGUCUCAAUCAACUCAUUUCCAGGAGUUUUCUCCUGUUUACUCAACAGCUCGCAGUCAAG,0.072
3,GGUCACGUCUCAAUCAACUCUUCGUCCAGGGAAAGCCCUGGUUAUUUCAACAGCUCGCAGUCAAG,0.0753
4,GGUCACGUCUCAAUCAACUCAAUUUCAGGAGUUUUCUCCUGCUUACUCAACAGCUCGCAGUCAAG,-0.0241
5,GGUCACGUCUCAAUCAACUCAGUCUCCAGGGAAAACCCUGGCAAUUUCAACAGCUCGCAGUCAAG,-0.0828
6,GGUCACGUCUCAAUCAACUCAGUCCCAGGAGUUUCCUCCUGUUUUUUCAACAGCUCGCAGUCAAG,-0.147
7,GGUCACGUCUCAAUCAACUCAUUUUCAGGAGUUUUCUCCUGUUUUUUCAACAGCUCGCAGUCAAG,-0.129
8,GGUCACGUCUCAAUCAACUCUUCUCCAGGAGUUUCCUCCUGUAAACUCAACAGCUCGCAGUCAAG,-0.023
9,GGUCACGUCUCAAUCAACUCUAUCUCAGGAGUUUUCUCCUGCUUUUUCAACAGCUCGCAGUCAAG,0.0297
10,GGUCACGUCUCAAUCAACUCAAUCUCAGGAGUUUACUCCUGCUUAGUCAACAGCUCGCAGUCAAG,0.223
11,GGUCACGUCUCAAUCAACUCUAAGGAGGGGGGGAAAACCCCUUUACCCUCAUUCUCAACAGCUCGCAGUCAAG,0.0292
12,GGUCACGUCUCAAUCAACUCUUUCUCAGGAGUUUUCUCCUGUAUUCUCAACAGCUCGCAGUCAAG,-0.0753
13,GGUCACGUCUCAAUCAACUCUUAAGAGGGGGGGAAAACCCCUUUGCCCUCGUUUUCAACAGCUCGCAGUCAAG,-0.212
14,GGUCACGUCUCAAUCAACUCUAUUCCCAGGGAAAGCCCUGGCUAUUUCAACAGCUCGCAGUCAAG,-0.198
15,GGUCACGUCUCAAUCAACUCAUUCUCAGGAGUUUUCUCCUGCUUUCUCAACAGCUCGCAGUCAAG,0.062
16,GGUCACGUCUCAAUCAACUCUAUUUCAGGAGUUUUCUCCUGCUAUGUCAACAGCUCGCAGUCAAG,0.0991
17,GGUCACGUCUCAAUCAACUCUAUUUCCAGGGAAAUCCCUGGUUAAUUCAACAGCUCGCAGUCAAG,0.168
18,GGUCACGUCUCAAUCAACUCUUUUUCAGGAGUUUACUCCUGCAUACUCAACAGCUCGCAGUCAAG,0.126
19,GGUCACGUCUCAAUCAACUCUAUUCCCAGGGAAAUCCCUGGCUUAUUCAACAGCUCGCAGUCAAG,-0.0659
20,GGUCACGUCUCAAUCAACUCAAUUUCCAGGGAAAGCCCUGGCGUUUUCAACAGCUCGCAGUCAAG,0.0261
21,GGUCACGUCUCAAUCAACUCGUCUUCAGGAGUUUUCUCCUGCAAAUUCAACAGCUCGCAGUCAAG,0.149
22,GGUCACGUCUCAAUCAACUCUAUCUCCAGGGAAAUCCCUGGUAUACUCAACAGCUCGCAGUCAAG,0.0925
23,GGUCACGUCUCAAUCAACUCAUCUCCAGGAGUUUUCUCCUGCUUUGUCAACAGCUCGCAGUCAAG,0.064
24,GGUCACGUCUCAAUCAACUCAUCCCCCAGGGAAAUCCCUGGUAAAUUCAACAGCUCGCAGUCAAG,-0.237
25,GGUCACGUCUCAAUCAACUCUUCUUCCAGGGAAAGCCCUGGUUAACUCAACAGCUCGCAGUCAAG,0.056

row,Sequence,binding signal (log2 fold change)
1,GGUCACGUCUCAAUCAACUCAUCCCCAGGAGUUUUCUCCUGCAAAUUCAACAGCUCGCAGUCAAG,-0.0112
2,GGUCACGUCUCAAUCAACUCAAUUCCAGGAGUUUUCUCCUGCAUUCUCAACAGCUCGCAGUCAAG,-0.135
3,GGUCACGUCUCAAUCAACUCAUUUCCCAGGGAAAUCCCUGGUUUAUUCAACAGCUCGCAGUCAAG,-0.107
4,GGUCACGUCUCAAUCAACUCUAUCUCAGGAGUUUGCUCCUGCAUUUUCAACAGCUCGCAGUCAAG,0.196
5,GGUCACGUCUCAAUCAACUCUUCGUCCAGGGAAAGCCCUGGUAAUUUCAACAGCUCGCAGUCAAG,-0.213
6,GGUCACGUCUCAAUCAACUCAUCCUCAGGAGUUUUCUCCUGCUAACUCAACAGCUCGCAGUCAAG,0.156
7,GGUCACGUCUCAAUCAACUCAACUCCAGGAGUUUACUCCUGUAAUGUCAACAGCUCGCAGUCAAG,-0.11
8,GGUCACGUCUCAAUCAACUCUCAAGAGGGGGGGAAAACCCCUUUGCCCUCAAUGUCAACAGCUCGCAGUCAAG,0.177
9,GGUCACGUCUCAAUCAACUCUUUUCCCAGGGAAAGCCCUGGUUUUCUCAACAGCUCGCAGUCAAG,0.037
10,GGUCACGUCUCAAUCAACUCCACGGAGGGGGGGAAAACCCCUUUACCCUCAAAUUCAACAGCUCGCAGUCAAG,0.543
11,GGUCACGUCUCAAUCAACUCAAUCCCAGGAGUUUUCUCCUGCUAUUUCAACAGCUCGCAGUCAAG,0.141
12,GGUCACGUCUCAAUCAACUCAUUAGAGGGGGGGAAAACCCCUUUACCCUCACAAUCAACAGCUCGCAGUCAAG,-0.00194
13,GGUCACGUCUCAAUCAACUCAUUCCCCAGGGAAAUCCCUGGCUAUUUCAACAGCUCGCAGUCAAG,-0.0263
14,GGUCACGUCUCAAUCAACUCAAUCUCCAGGGAAAACCCUGGUUAACUCAACAGCUCGCAGUCAAG,0.0368
15,GGUCACGUCUCAAUCAACUCUUCCCCAGGAGUUUUCUCCUGCUUUCUCAACAGCUCGCAGUCAAG,0.05
16,GGUCACGUCUCAAUCAACUCUAGUCCCAGGGAAACCCCUGGUUUUUUCAACAGCUCGCAGUCAAG,0.0995
17,GGUCACGUCUCAAUCAACUCAACUCCCAGGGAAAGCCCUGGUUUACUCAACAGCUCGCAGUCAAG,0.136
18,GGUCACGUCUCAAUCAACUCCCUCGAGGGGGGGAAAACCCCUUUACCCUCUAAUUCAACAGCUCGCAGUCAAG,-0.5
19,GGUCACGUCUCAAUCAACUCAAGUCCAGGAGUUUCCUCCUGCAUAUUCAACAGCUCGCAGUCAAG,0.199
20,GGUCACGUCUCAAUCAACUCUACGCCAGGAGUUUUCUCCUGCUAUUUCAACAGCUCGCAGUCAAG,-0.191
21,GGUCACGUCUCAAUCAACUCAACGGAGGGGGGGAAAACCCCUUUACCCUCAUCAUCAACAGCUCGCAGUCAAG,-0.36
22,GGUCACGUCUCAAUCAACUCAUCGUCAGGAGUUUACUCCUGUUAUUUCAACAGCUCGCAGUCAAG,0.0407
23,GGUCACGUCUCAAUCAACUCAUUUUCCAGGGAAACCCCUGGCAUAUUCAACAGCUCGCAGUCAAG,-0.104
24,GGUCACGUCUCAAUCAACUCAGUCUCAGGAGUUUGCUCCUGCAUUUUCAACAGCUCGCAGUCAAG,-0.19
25,GGUCACGUCUCAAUCAACUCAACUUCAGGAGUUUCCUCCUGUAAAUUCAACAGCUCGCAGUCAAG,0.0785

row,Sequence,binding signal (log2 fold change)
1,GGUCACGUCUCAAUCAACUCAUCUCCCAGGGAAACCCCUGGUUUUCUCAACAGCUCGCAGUCAAG,-0.0846
2,GGUCACGUCUCAAUCAACUCCCUAGAGGGGGGGAAAACCCCUUUACCCUCACAUUCAACAGCUCGCAGUCAAG,-0.201
3,GGUCACGUCUCAAUCAACUCAGUCUCCAGGGAAAACCCUGGUUUAUUCAACAGCUCGCAGUCAAG,0.0693
4,GGUCACGUCUCAAUCAACUCUCAGGAGGGGGGGAAAACCCCUUUACCCUCACAUUCAACAGCUCGCAGUCAAG,0.0989
5,GGUCACGUCUCAAUCAACUCUUCUUCCAGGGAAAUCCCUGGCUAUGUCAACAGCUCGCAGUCAAG,-0.0381
6,GGUCACGUCUCAAUCAACUCAAUUUCAGGAGUUUACUCCUGCAUAGUCAACAGCUCGCAGUCAAG,0.0665
7,GGUCACGUCUCAAUCAACUCAUUUUCCAGGGAAAACCCUGGCUAACUCAACAGCUCGCAGUCAAG,-0.0189
8,GGUCACGUCUCAAUCAACUCAUCUUCCAGGGAAAACCCUGGCUUACUCAACAGCUCGCAGUCAAG,-0.0839
9,GGUCACGUCUCAAUCAACUCACAAGAGGGGGGGAAAACCCCUUUACCCUCACAUUCAACAGCUCGCAGUCAAG,0.0506
10,GGUCACGUCUCAAUCAACUCAGUUUCAGGAGUUUUCUCCUGCUAUCUCAACAGCUCGCAGUCAAG,0.0785
11,GGUCACGUCUCAAUCAACUCUUCCUCAGGAGUUUCCUCCUGUUUUCUCAACAGCUCGCAGUCAAG,-0.0909
12,GGUCACGUCUCAAUCAACUCAAGGUCAGGAGUUUUCUCCUGUAAAUUCAACAGCUCGCAGUCAAG,-0.0085
13,GGUCACGUCUCAAUCAACUCCUUAGAGGGGGGGAAAACCCCUUUGCCCUCAUCGUCAACAGCUCGCAGUCAAG,-0.458
14,GGUCACGUCUCAAUCAACUCAUCCCCCAGGGAAACCCCUGGUAUAUUCAACAGCUCGCAGUCAAG,-0.129
15,GGUCACGUCUCAAUCAACUCAAUCCCAGGAGUUUGCUCCUGCUUACUCAACAGCUCGCAGUCAAG,0.228
16,GGUCACGUCUCAAUCAACUCAACUCCCAGGGAAAGCCCUGGCAUUUUCAACAGCUCGCAGUCAAG,0.127
17,GGUCACGUCUCAAUCAACUCUAUCCCCAGGGAAAACCCUGGCUAUCUCAACAGCUCGCAGUCAAG,0.336
18,GGUCACGUCUCAAUCAACUCUAUGUCCAGGGAAACCCCUGGUUUUUUCAACAGCUCGCAGUCAAG,-0.196
19,GGUCACGUCUCAAUCAACUCAAUCUCAGGAGUUUGCUCCUGUAAUCUCAACAGCUCGCAGUCAAG,-0.0473
20,GGUCACGUCUCAAUCAACUCAACUCCCAGGGAAACCCCUGGCAUAUUCAACAGCUCGCAGUCAAG,-0.000501
21,GGUCACGUCUCAAUCAACUCAUUCCCAGGAGUUUACUCCUGCAUUUUCAACAGCUCGCAGUCAAG,-0.0691
22,GGUCACGUCUCAAUCAACUCAAUCUCCAGGGAAAGCCCUGGCAAAGUCAACAGCUCGCAGUCAAG,0.167
23,GGUCACGUCUCAAUCAACUCUAUCCCAGGAGUUUUCUCCUGCAUUCUCAACAGCUCGCAGUCAAG,-0.0104
24,GGUCACGUCUCAAUCAACUCAUUUCCAGGAGUUUCCUCCUGCAAUCUCAACAGCUCGCAGUCAAG,0.0779
25,GGUCACGUCUCAAUCAACUCAAUCUCCAGGGAAAUCCCUGGCUAUUUCAACAGCUCGCAGUCAAG,-0.109
